# About 2,200 (0.71%) of roughly 310,000 compounds showed an effect of 50% or more. Effects have a minus sign here. This is one part of the list.
# Target: human ether-à-go-go-related gene (hERG) potassium channel (human, UniProt Q12809)
# Experiment: primary screen, population patch clamp on CHO cells stably expressing hERG
# Sequence of human ether-à-go-go-related gene (hERG) potassium channel (Q12809 whole entry, looked up): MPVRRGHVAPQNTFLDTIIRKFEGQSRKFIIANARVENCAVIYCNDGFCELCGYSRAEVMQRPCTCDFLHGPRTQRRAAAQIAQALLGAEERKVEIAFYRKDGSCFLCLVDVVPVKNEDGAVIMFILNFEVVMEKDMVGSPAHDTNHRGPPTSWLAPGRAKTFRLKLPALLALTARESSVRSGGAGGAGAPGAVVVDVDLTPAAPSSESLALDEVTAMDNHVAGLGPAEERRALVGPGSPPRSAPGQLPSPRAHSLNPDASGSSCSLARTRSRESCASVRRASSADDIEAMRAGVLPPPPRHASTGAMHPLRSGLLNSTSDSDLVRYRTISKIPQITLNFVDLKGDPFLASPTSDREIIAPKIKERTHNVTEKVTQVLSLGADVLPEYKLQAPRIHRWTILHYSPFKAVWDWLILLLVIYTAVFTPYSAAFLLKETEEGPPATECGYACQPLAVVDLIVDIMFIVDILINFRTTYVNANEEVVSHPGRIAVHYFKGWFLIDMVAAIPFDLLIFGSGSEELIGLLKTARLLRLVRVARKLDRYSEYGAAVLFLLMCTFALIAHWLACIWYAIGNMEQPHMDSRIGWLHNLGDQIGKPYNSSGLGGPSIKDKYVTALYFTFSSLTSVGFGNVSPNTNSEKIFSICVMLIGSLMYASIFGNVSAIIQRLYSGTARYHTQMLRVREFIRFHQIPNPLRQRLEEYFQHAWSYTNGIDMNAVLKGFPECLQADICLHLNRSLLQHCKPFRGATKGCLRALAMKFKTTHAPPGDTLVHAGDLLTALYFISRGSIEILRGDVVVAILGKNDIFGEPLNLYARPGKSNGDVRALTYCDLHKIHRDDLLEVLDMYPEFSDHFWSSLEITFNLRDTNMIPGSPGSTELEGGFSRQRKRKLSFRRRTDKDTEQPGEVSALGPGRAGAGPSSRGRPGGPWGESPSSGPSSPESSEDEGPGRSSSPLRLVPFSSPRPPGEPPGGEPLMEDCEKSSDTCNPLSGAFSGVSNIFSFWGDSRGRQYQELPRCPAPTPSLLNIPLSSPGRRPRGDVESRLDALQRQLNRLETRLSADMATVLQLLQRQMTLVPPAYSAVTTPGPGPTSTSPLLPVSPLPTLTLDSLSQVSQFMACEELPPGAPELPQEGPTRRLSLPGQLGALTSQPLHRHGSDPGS
row,SMILES,"hERG current change (%, negative = inhibition) at 1uM [%]"
1,CCOc1ccc2ccccc2c1C(=O)NCC(c1ccc(N(C)C)cc1)N(C)C (centres unmarked),0.466
2,NC(=O)CC(NC(=O)c1ccccc1)c1ccc(NC2CCC2)c([N+](=O)[O-])c1 (centres unmarked),-4.98
3,Cc1cc2n(n1)C(c1ccccc1)CC(c1ccc(Br)cc1)=N2 (centres unmarked),5.15
4,C/C(=N\OCC(=O)OCC(=O)Nc1cc(S(C)(=O)=O)ccc1Cl)c1ccc2c(c1)OCO2,3.95
5,NC(=O)[C@H]1CC2(CC(c3cccc(NC(=O)COc4ccc(Cl)cc4)c3)=NO2)CN1C(=O)c1ccccc1C(=O)c1ccccc1 (some centres unmarked),4.27
6,Cc1cc(C)nc(N/N=C/c2ccncc2)n1,14
7,Cc1ccc(C2C(=O)N(C3CCCC3)CC(=O)N2CC2COc3ccccc3O2)cc1 (centres unmarked),-8.04
8,Cc1ccc(-c2noc(C3CCCN(C(=O)c4c(F)cccc4F)C3)n2)cc1 (centres unmarked),-4.71
9,Cc1cc(C(=O)OCC(=O)NCc2ccc(Cl)cc2Cl)c(C)o1,11.2
10,CCOC(=O)c1ccc(N=C(C)c2c(O)[nH]c(=O)[nH]c2=O)cc1,16.9
11,CCOC(=O)N1CCN(C(=O)c2ccc3c(c2)N(Cc2cc(C)ccc2C)C(=O)c2ccccc2S3=O)CC1 (centres unmarked),15.3
12,O=C(Nc1sc2c(c1C(=O)NCc1ccco1)CCCC2)c1ccc2c(c1)OCO2,9.83
13,CNc1nc(N2CCc3ccccc32)ncc1F,4.07
14,Cc1cccc(C)c1NC(=S)NNc1ncc(C(F)(F)F)cc1Cl,12.3
15,COC(=O)c1ccccc1NC(=O)C1CC(=O)N(c2ccc(C)cc2)C1 (centres unmarked),-13.5
16,Cc1ccccc1OCC(=O)NC(=S)Nc1ccc2c3c(cccc13)CC2,25.4
17,CCOC(=O)N1CCC(NS(=O)(=O)c2ccccc2)CC1,4.15
18,Cc1onc(-c2ccccc2Cl)c1C(=O)Nc1nc2c(s1)CCCC2,18.1
19,O=C(NCc1ccco1)c1cc2cc(Br)ccc2o1,15.2
20,COc1ccc(OC)c(NC(=O)c2nnn(Cc3ccccc3C)c2N)c1,17
21,Cc1ccc(-n2nc3c(c2NC(=O)c2ccc(OC(C)C)cc2)CS(=O)C3)cc1 (centres unmarked),9.66
22,CCOC(=O)C1=C(CS(=O)(=O)c2ccc(F)cc2)NC(=O)NC1c1cc(OC)c(O)c(OC)c1 (centres unmarked),19.4

row,SMILES,"hERG current change (%, negative = inhibition) at 1uM [%]"
1,Cc1cccc(NC(=O)c2ccc3c(=O)n4c(nc3c2)CCCCC4)n1,-28.4
2,COc1ccc(N2CCN(C(=O)CN(C)S(=O)(=O)c3cc(C)ccc3OC)CC2)cc1,6.01
3,O=C(NNC(=O)c1cccs1)c1ccc(Br)cc1,21.5
4,O=C1C(Br)=Cc2cccc3cccc1c23,11.8
5,O=C(OCc1cc2ccccc2[nH]c1=O)c1ccc([N+](=O)[O-])cc1,5.34
6,CCOCCCNC(=O)C(c1ccc(Cl)cc1)N1CCN(c2ccccc2)CC1 (centres unmarked),14.7
7,CCOc1ccccc1CN1CCN(CC2=Cc3cc(OC)ccc3OC2)CC1CCO (centres unmarked),-46.3
8,COc1ccccc1NC(=O)CN1CCC(c2nc3ccc(C)cc3[nH]2)CC1,-15.8
9,Clc1ccccc1Cn1nnc2c(N3CCOCC3)nc(C3CC3)nc21,11.9
10,COc1ccccc1/C=C1/C(=O)N(c2ccc([N+](=O)[O-])cc2)N=C1C,13.8
11,COc1ccc(-c2nc(N)ncc2-c2csc(C)n2)c(O)c1OC,10
12,COc1ccc(N2CCN(C(=O)CCc3nc(-c4ccc(C)cc4)no3)CC2)cc1,4.74
13,O=C(NC1CCCC1)C(c1ccncc1)N(C(=O)c1ccco1)c1ccc(F)c(Cl)c1 (centres unmarked),12.9
14,Cc1cccc(OCC(=O)N2CCN(C(=O)CCC3CCCC3)CC2)c1,-17.1
15,CCN(CC)S(=O)(=O)c1cccc(C(=O)N/N=C2\CC(=O)CC(C)(C)C2)c1,18.7
16,COCCNC(=O)Cn1nc(-c2ccccc2OC)ccc1=O,19.7
17,COc1ccc(OC)c(C2C(C(C)=O)=C(O)C(=O)N2CCc2ccc(OC)c(OC)c2)c1 (centres unmarked),-8.33
18,CC(Nc1nc(N2CCNCC2)nc2ccccc12)c1ccccc1 (centres unmarked),-31.7
19,COc1ccc(CCNC(=O)CSC(=O)c2ccccc2)cc1OC,1.07
20,Cc1ccc(C(C)C)c(OCC(O)CNC2CCCC2)c1.Cl (centres unmarked),-11.5
21,CN(Cc1cccc2cnccc12)C(=O)CCc1nnc(CCc2ccccc2)o1,-5.46
22,O=C(CCCn1c(=O)c2ccccc2n(CC(=O)NCc2ccco2)c1=O)NCc1ccco1,11.4
